Data on one molecule can be found in PMC8353491, “An “up” oriented methionine-aromatic structural motif in SUMO is critical for its stability and activity” (The Journal of Biological Chemistry, 2021).

For this test, the target named is T1, Ubc9 (SUMO E2 conjugating enzyme) (UniProt P63279).
T1 construct: Ubc9, the SUMO conjugating enzyme E2; 15N-labelled in the reverse NMR titration; source: purified
In words: ITC; SUMO1 in the cell (wt 12 uM, M82I 7 uM), Ubc9 365 uM in the syringe; 25 mM Tris pH 8.0, 2 mM BME; 298 K; GE ITC200. Conditions: both partners purified. On the technique in general: ITC needs no label: the signal is the heat of the interaction.

B1: wild-type human SUMO1 (Small Ubiquitin-like Modifier 1) (natural protein)
chain: not shown
notes: human wild-type SUMO1, 6xHis tagged, in pQE-80L; Uniformly 15N- (or 13C/15N-) labelled for the NMR titrations in which SUMO1 is observed, unlabelled otherwise; As it is active in SUMOylation it is probably the mature form (surmise); also called wt-SUMO1; Wt-SUMO1; source: E. coli BL21 (DE3), purified (Ni-NTA, gel filtration Superdex 75)
The term Kd denotes the free concentration of one partner at which half of the binding sites on the other are occupied at equilibrium, for simple one-to-one binding. B1 showed a Kd of 85 ± 30 nM.
